The values below come from PubChem BioAssay AID1508624 (National Center for Advancing Translational Sciences (NCATS), 2021).

Molecules are shown by their SMILES. Hit rate of the full screen: of about 48,000 compounds, about 120 (0.25%) were called active. Inconclusive results (about 4%) are left out. The call rests on the fitted dose curve; in most records, active means well fitted activation curve with a large enough effect; inconclusive means small, poorly fitted or top-dose-only effect, or another doubt; inactive means no such curve, though single readings can be large or run the other way. The list shows a part of the results.

This assay can be described thus: Primary qHTS for Identification of Small Molecule Activators of Huntingtin-Antisense Promoter Activity. Further: nearly all actives have a fitted effect of over 55% in size. The following applies: HEK293 HTT-AS promoter firefly luciferase reporter (activity 0% = vehicle and -100% = no light), 24 h; series mostly up to 57.5 µM; activity change, positive = activation: at the top concentration. In short, it runs like this:
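Quantitative HTS used concentration series of up to 57.5 uM final on HEK293 luciferase reporter cells, 24 h at 37 degrees C. Readout was Dual-Glo firefly luminescence.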
(qHTS replaces the single test concentration by a dilution series.)
On to `CN1CCN(C2Cc3ccccc3Sc3ccc(Cl)cc32)CC1` (stereo not given), for which the “activity change, positive = activation” value is inactive: -27.5%.

As for `COc1ccccc1CNC(=O)CCCn1c(=O)c2ccccc2n(Cc2ccc(C)cc2)c1=O`, the “activity change, positive = activation” value was inactive: -7.31%.

Consider `COc1ccc(N(CC(=O)NCCc2ccc(Cl)cc2)S(=O)(=O)c2c(C)nn(C)c2C)cc1`, for which the “activity change, positive = activation” value was inactive: -25.2%.

On to `Cc1ccc(Sc2ccc(N3CCCC(C(=O)Nc4ccc(F)cc4F)C3)nn2)cc1` (stereo not given), for which the “activity change, positive = activation” value was inactive: -21%.

For the compound `CCOC(=O)C1CCN(C(=O)c2nn(-c3ccc(OC)cc3)c(=O)c3c2c2ccccc2n3C)CC1`, the “activity change, positive = activation” value is inactive: -1.95%.

As for `Cc1ccc(-c2noc(-c3nnn(CC(=O)Nc4cc(Cl)ccc4C)c3N)n2)cc1`, the “activity change, positive = activation” value is inactive: 3.61%.

On to `Cc1nn(C)c2c1c(C(F)(F)F)cc(=O)n2CC(=O)N1CCC(C)CC1`, for which the “activity change, positive = activation” value was inactive: -14.3%.

Take `CC1CCN(S(=O)(=O)c2cc(C(=O)N3CCN(c4ccccc4F)CC3)n(C)c2)CC1`: the “activity change, positive = activation” value is inactive: -25.9%.

Regarding `CCc1ccc(C(=O)NC2=NC(c3ccccc3F)CC(=O)N2)cc1` (stereo not given), the “activity change, positive = activation” value is inactive: -2.26%.

Consider `Cn1cnc(S(=O)(=O)N2CCCC(C(=O)Nc3ccc(OC(F)(F)F)cc3)C2)c1` (stereo not given), for which the “activity change, positive = activation” value was inactive: -7.58%.

Regarding `CCOC(=O)c1c(NC(=O)c2ccc(C)c(C)c2)sc2c1CCCCC2`, the “activity change, positive = activation” value is inactive: -9.61%.

On to `CCC(=O)N1CCc2cc(S(=O)(=O)NC(C(=O)Nc3cc(OC)cc(OC)c3)C(C)C)ccc21` (stereo not given), for which the “activity change, positive = activation” value is inactive: 3.73%.

In the case of `COCCCNC(=O)c1ccc2nc(CCc3ccccc3)oc2c1`, the “activity change, positive = activation” value was inactive: 30%.

In the case of `CN[C@@H]1[C@H](O)[C@H](NC)[C@H]2O[C@@]3(O)C(=O)C[C@@H](C)O[C@H]3O[C@@H]2[C@H]1O`, the “activity change, positive = activation” value was inactive: 4.37%.

Regarding `Cc1c(Cl)ccc2sc(N3CCN(C(=O)CS(=O)(=O)c4ccccc4)CC3)nc12`, the “activity change, positive = activation” value was inactive: -28%.

Turning to `O=C(Cc1c(C(=O)O)[nH]c2ccccc12)Nc1cccc(C(F)(F)F)c1`, the “activity change, positive = activation” value was inactive: -1.13%.

For `CCOc1ccc(OCC)c(NS(=O)(=O)c2ccc3c(c2)CCN3C(=O)C2CCC2)c1`, the “activity change, positive = activation” value was inactive: -28%.

Take `CCOc1ccc(CNC(=O)Cn2c(=O)c3cccn3c3ccccc32)cc1`: the “activity change, positive = activation” value was inactive: -27.1%.

As to `O=C(Nc1ccccc1Br)N1CCC(CN2CCCC2)CC1`, the “activity change, positive = activation” value was inactive: 0%.

On to `Cc1nnc(N2CCCC(C(=O)NCCc3ccccc3)C2)c2nn(-c3ccccc3)c(C)c12` (stereo not given), for which the “activity change, positive = activation” value is inactive: -8.37%.

With `Cc1ccn2cc(-c3ccc(C)c(NS(=O)(=O)c4ccc(Cl)cc4)c3)nc2c1`, the “activity change, positive = activation” value was inactive: 5.23%.

With `Cc1ccc(S(=O)(=O)c2nc(-c3cccc(Cl)c3)oc2NCc2ccccc2)cc1`, the “activity change, positive = activation” value is inactive: -17.6%.

Turning to `Cc1cc(C)c(NC(=O)Cn2c(=O)n(Cc3ccc(C(=O)NCc4ccco4)cc3)c(=O)c3sccc32)c(C)c1`, the “activity change, positive = activation” value was inactive: -31.6%.

Take `CN(C)CCNC(=O)c1ccc2c(c1)N(Cc1c(F)cccc1Cl)C(=O)c1ccccc1S2`: the “activity change, positive = activation” value was inactive: -25.5%.

For `CCOC(=O)Cn1c(=O)oc2cc(S(=O)(=O)N3CCN(c4cc(C)ccc4C)CC3)ccc21`, the “activity change, positive = activation” value is inactive: -10.4%.
